According to PubChem BioAssay (NCI):
“And” between values parts separate entries of the source, which are not always exact repeats. Equal entries are not always repeated.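 Five concentrations, 48 hours, 96-well plates. At the GI50, growth is halved. Definition used: TGI = concentration required for complete inhibition of growth.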

The compounds below were run on NCI-H322M lung (assay: NCI-60 cell line screen, 48 h).
With C/C(CC(=O)NCCc1ccccc1)=N\NS(=O)(=O)c1ccc(C)cc1 the TGI was greater than 100 µM.
For CCCC[C@@H](C)/C=C1\CN2CCC[C@H]2[C@@](C)(OCc2ccccc2)[C@@H]1O, the TGI was greater than 20 µM.
C[N+]1=c2c3cccc4cccc(c(=O)n2CC1)c43 gave a TGI of 33.4 µM.
Work on O=C1CCc2c(sc3[nH]c(=S)n(-c4cc(C(F)(F)F)cc(C(F)(F)F)c4)c(=O)c23)C1 yielded a GI50 of 0.578 µM and a TGI of 28.7 µM.
Work on COC(=O)[C@@H]1CS(=O)(=O)C(C(C)C)N1C(C)=O (some centres undefined) yielded a TGI greater than 100 µM.
With [N-]=[N+]=NC(c1cn(C2CC(O)C(CO)O2)c(=O)[nH]c1=O)C(Cl)Br (centres undefined) the TGI was greater than 100 µM.
Compound COC(=O)c1cc(-c2ccccc2)[nH]c1N/N=C/c1c(Cl)cccc1Cl has a GI50 of 0.521 µM and a TGI of 23.3 µM.
In the case of Cc1ccc(S(=O)(=O)NC(=O)NC(Cc2ccc(O)cc2)C(=O)O)cc1 (centres undefined), the TGI is reported as greater than 100 µM.
CCN1C/C(=C\c2ccc(Cl)cc2)c2nc(N)c(C#N)c(-c3ccc(Cl)cc3)c2C1 showed a TGI greater than 100 µM.
Work on Fc1cccc(F)c1C1SCc2nc3cc(Cl)c(Cl)cc3n21 (centres undefined) yielded a TGI greater than 100 µM.
With CCO/C=C1\N=C(c2ccc(Cl)c(Cl)c2)OC1=O the TGI was greater than 100 µM.
With Nc1ccc(-c2nc3ccccc3s2)cc1Cl the TGI was greater than 100 µM.
Nc1ccn(C2CC(F)C(CO)O2)c(=O)n1 (centres undefined) was tested, and the GI50 was greater than 100 µM and the TGI was greater than 100 µM.
Fc1ccc(-c2ncn(C3CCNCC3)c2-c2ccnc(Oc3ccc4c(c3)OCO4)n2)cc1 gave a GI50 greater than 25 µM and a TGI greater than 25 µM.
In the case of C[C@H]1[C@H](C)N1CC(O)Cn1ccnc1[N+](=O)[O-] (some centres undefined), the TGI is reported as greater than 100 µM.
C/C=C(\C)C(=O)OC1CC(OC(C)=O)C2(C(=O)OC)COC3C2C1(C)C1C2(C(=O)OC)OCC1(C3O)C1(O)C3CC(C4(O)C=COC4O3)C1(C)O2 (centres undefined) was tested, and the TGI was greater than 100 µM.
Work on C[C@]12CC[C@H]3[C@@H](CCC4=CC(=O)C=C[C@@]43OC(=O)C(F)(F)F)[C@@H]1CCC2=O yielded a TGI greater than 100 µM.
Work on CC1CC/C(=C\c2ccc(F)cc2)C2=C1C(c1ccc(F)cc1)N1C(=O)CSC1=N2 (centres undefined) yielded a TGI greater than 100 µM.
CN(C)Cc1ccc(-c2cc3onc(-c4ccccc4)c3c(=O)n2C)cc1 showed a TGI greater than 100 µM.
For COC(=O)C1CC2(C)C=CC1N(C(=O)OCc1ccccc1)C2 (centres undefined), the TGI was greater than 100 µM.
NNC(=O)Nc1nc2ccc(NN)cc2[nH]1 gave a TGI greater than 100 µM.
Compound Cc1cc2c(c(C(N)=O)c1C)-c1cccc(F)c1C2=O has a TGI greater than 100 µM.
For O=C(O)C[C@H](O)C[C@H](O)/C=C/c1c(C2CC2)nc2ccccc2c1-c1ccc(F)cc1, the GI50 was 4.19 µM and 4.06 µM and the TGI was greater than 100 µM.
Work on Cc1ccc(/C=C(\C#N)c2cc3ccccc3n2C)cc1 yielded a GI50 of 0.694 µM and a TGI greater than 100 µM.
Cn1nc2ccc(Nc3cc(=O)[nH]c4ccc5nn(C)nc5c34)cc2n1 showed a TGI greater than 100 µM.
COc1ccc2c(c1)[n+](=O)c(C(=O)c1cccs1)c(C(F)(F)F)n2[O-] was tested, and the GI50 was 2.13 µM and the TGI was 15.1 µM.
With Clc1sc(Cl)c2c1[C@@H](Cl)C[C@@H]2Cl the TGI was greater than 100 µM.
For CCCn1c(SCCSc2c3ccccc3c(-c3nc(F)nc(F)n3)n2CCC)c2ccccc2c1-c1nc(F)nc(F)n1, the TGI was greater than 100 µM.
O=C(/C(=C(/O)c1ccccc1)c1nc2ccccc2sc1=O)c1ccccc1 showed a TGI greater than 100 µM.
CCC1(O)CC(OC2CC(N(C)C)C(OC3CC(O)C(OC4OC(C)C(=O)C=C4N)C(C)O3)C(C)O2)c2c(cc3c(c2O)C(=O)c2c(O)cccc2C3=O)C1C(=O)OC (centres undefined) was tested, and the TGI was 10.1 µM.
With CN1CCN(Cc2c[nH]c3c2C(=O)c2c(c(O)c4ccccc4c2O)C3=O)CC1 the GI50 was 8.62 µM and the TGI was 24 µM.
For CCOC(=O)NC(=O)c1cn(CCN2CCN(C(=O)CNC(=O)CNC(=O)Cn3cc(C(=O)NC(=O)OCC)c(=O)[nH]c3=O)CC2)c(=O)[nH]c1=O, the TGI was greater than 100 µM.
Compound O=C(NNC(=S)Nc1ccccc1)c1nsc2ccccc12 has a TGI greater than 100 µM.
N#Cc1nc(-c2ccc(F)cc2)oc1S(=O)(=O)N1CCCCC1 was tested, and the GI50 was 14.5 µM and the TGI was 27.6 µM.
Cc1c(CNc2ccc(C(=O)NC(CCCNC(=O)c3ccccc3C(=O)O)C(=O)O)cc2)cnc2nc(N)nc(N)c12 (centres undefined) was tested, and the TGI was 4.28 µM.
O=c1[nH]nc(-c2ccccc2)n1/N=C/c1ccc([N+](=O)[O-])o1 was tested, and the TGI was 27.4 µM.
Work on COc1ccc([C@H](CC(=O)O)N2CCN(CCCc3ccc4c(n3)NCCC4)C2=O)cn1 yielded a GI50 greater than 100 µM and a TGI greater than 100 µM.
In the case of Cc1cn(C2CCC(CO)(CF)O2)c(=O)[nH]c1=O (centres undefined), the TGI is reported as greater than 100 µM.
With c1nc(NCCc2cnc[nH]2)c2[nH]cnc2n1 the TGI was greater than 100 µM.
Cn1cccc1-c1ccc(-c2ccc(CO)[se]2)[se]1 was tested, and the TGI was greater than 100 µM.
With O=C(/C=C(\O)C(=O)O)/C=C(\O)c1ccccc1 the GI50 was greater than 1 µM and the TGI was greater than 100 µM.
In the case of CCC(=O)N1C/C(=C/c2ccc(Cl)cc2)C(=O)/C(=C/c2ccc(Cl)cc2)C1, the GI50 is reported as 2.11 µM and the TGI is reported as 4.5 µM.
With O=[N+]([O-])c1cccc(/C=N/NC2=CS(=O)(=O)C=C2)c1 the TGI was greater than 100 µM.
Compound CN1/C(=C/C=C/C=C/C=C2C(=O)c3ccccc3C2=O)C(C)(C)c2ccccc21 has a TGI greater than 100 µM.
For COC(=O)C1=C(OC(=O)/C(=C/c2ccccc2)c2ccc(OC)cc2)C(C(=O)OC)[C@@]2(O)[C@@H](C(=O)OC)[C@H](C)C[C@@H]1[C@@H]2C(=O)OC (some centres undefined), the TGI was greater than 100 µM.
In the case of O=c1c2cc(C(F)(F)F)ccc2sc2c(NCCCNCCO)nc3ccccc3c12, the GI50 is reported as 1.53 µM and the TGI is reported as 2.89 µM.
